# Laboratory results: PubChem BioAssay AID588342 (National Center for Advancing Translational Sciences (NCATS), 2011)
# Out of some 360,000 compounds screened, about 25,000 (6.9%) were called active. The inconclusive results got no clear call from the source; some entries with a clear call stand among them for comparison. Calls come from the whole dose curve; as a rule, active = well fitted inhibition curve with a large enough effect; inconclusive = small, poorly fitted or top-dose-only effect; inactive = flat fitted curve, though single readings scatter. Where the call is inconclusive, the potency comes from a doubtful curve fit.
# Molecular target: Luciferin 4-monooxygenase (Photinus pyralis) (UniProt P08659)
# Assay: qHTS profiling assay for firefly luciferase inhibitor/activator using purifed enzyme and Km concentrations of substrates (counterscreen for miR-21 project); note: nearly all actives have a fitted effect of over 55% in size;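 for activity change, negative = inhibition: plate controls were vehicle for no effect and reference inhibitor for full effect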
# Settings: purified FLuc, luminescence inhibition; series mostly up to 57.5 µM; activity change, negative = inhibition: at the top concentration
# Procedure, shortened: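 Purified P. pyralis luciferase, 10 nM final, with Km-level 10 uM D-luciferin and 10 uM ATP in 50 mM Tris acetate pH 7.5, 10 mM Mg acetate, 0.01% Tween-20, 0.05% BSA; 6-point qHTS titration about 60 µM downward; luminescence read.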
# Potency is the fitted concentration of half-maximal effect; tags give direction and shape of the fitted curve.
# Sequence of UniProt P08659 (P08659 whole entry, looked up): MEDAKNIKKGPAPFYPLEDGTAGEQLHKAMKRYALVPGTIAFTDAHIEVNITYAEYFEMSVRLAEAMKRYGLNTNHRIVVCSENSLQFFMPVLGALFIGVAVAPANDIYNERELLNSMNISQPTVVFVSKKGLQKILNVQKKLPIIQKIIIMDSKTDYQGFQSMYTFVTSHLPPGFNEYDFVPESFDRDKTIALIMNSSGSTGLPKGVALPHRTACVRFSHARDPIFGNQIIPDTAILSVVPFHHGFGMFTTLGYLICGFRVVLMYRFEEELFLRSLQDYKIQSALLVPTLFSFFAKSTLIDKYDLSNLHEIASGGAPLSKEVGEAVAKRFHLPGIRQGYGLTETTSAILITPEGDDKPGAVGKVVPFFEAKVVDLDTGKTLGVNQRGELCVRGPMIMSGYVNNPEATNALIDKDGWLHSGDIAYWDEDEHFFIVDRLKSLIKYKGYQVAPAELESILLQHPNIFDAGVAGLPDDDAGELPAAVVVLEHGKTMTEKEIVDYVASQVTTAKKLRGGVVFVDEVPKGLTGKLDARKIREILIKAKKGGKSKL
Compound,Potency,"activity change, negative = inhibition"
O=C(c1cc(-c2ccc(F)cc2)on1)N1CCOCC1,active: 6.01 µM,–
CC(C)c1ccc(NC(=O)c2ccccc2NC(=O)C2CCCCC2C(=O)O)cc1 (configuration not stated),"inconclusive: 23.9 µM [inhibitor, single point]",–
Cc1cc(C)n(-c2nc3ccccc3nc2Nc2ccc(Cl)cc2Cl)n1,–,inactive: -5.75%
COc1ccc(CNC(=O)CCC2N=C3c4ccccc4N=C(SCc4cccc(F)c4)N3C2=O)cc1 (configuration not stated),–,inactive: 5.36%
O=C(CSc1nccn1-c1ccccc1)NO,–,inactive: -0.257%
CC(C)n1c(-c2ccc(N(C)C)cc2)nc2ccccc21,active: 7.57 µM,–
CC(C)C(NC(=O)OCc1ccccc1)C(=O)OCC(=O)N1C(C)CCCC1C (configuration not stated),"inconclusive: 21.3 µM [inhibitor, single point]",–
O=[N+]([O-])c1ccc(N/N=C/c2ccc[nH]2)cc1,"inconclusive: 30.1 µM [inhibitor, single point]",–
CSc1ccc(/C=C(\C#N)C(=O)NC2CCCCC2C)cc1 (configuration not stated),"inconclusive: 26.9 µM [inhibitor, partial curve, poor fit]",–
Cc1c(CCO)c(=O)[nH]n1C(=O)c1ccc(F)cc1,"inconclusive: 23.9 µM [inhibitor, single point]",–
COc1cccc(-c2cc(C(=O)N3CCCCC3C)no2)c1 (configuration not stated),active: 8.49 µM,–
CCCn1c2ccccc2c2cnn(CC(=O)N3CCN(c4ccccc4F)CC3)c(=O)c21,"inconclusive: 8.49 µM [inhibitor, partial curve, poor fit]",–
CCOC(=O)N1CCN(C(=O)CSCC(=O)Nc2nc(-c3ccc4c(c3)OCO4)cs2)CC1,"inconclusive: 19 µM [inhibitor, single point]",–
O=C(c1ccc(CSc2ccc(Cl)cc2)cc1)N1CCOCC1,"inconclusive: 23.9 µM [inhibitor, partial curve, poor fit]",–
O=C(NCCNc1ccc([N+](=O)[O-])cc1Cl)c1ccccc1F,–,inactive: -29%
CCNc1ccc(-c2nc(-c3ccccn3)no2)cc1[N+](=O)[O-],"inconclusive: 6.75 µM [inhibitor, partial curve, poor fit]",–
COc1cc(/C=N/NC(=O)c2ccncc2)ccc1OC(=O)c1ccccc1Cl,"inconclusive: 26.9 µM [inhibitor, partial curve]",–
CC(C)(C)c1ccc(Cn2c(=O)cnc3ccccc32)cc1,active: 15.1 µM,–
Cc1cc(NC(=O)COCc2cc(-c3ccc(F)cc3)on2)ccc1Br,"inconclusive: 21.3 µM [inhibitor, partial curve, poor fit]",–
COc1ccc(N(CCC#N)S(=O)(=O)c2cccc3nsnc23)cc1,–,inactive: -1.88%
O=C1C2C3C=CC(C3)C2C(=O)N1/N=C/c1cn(Cc2ccccc2)c2ccccc12 (configuration not stated),"inconclusive: 15.1 µM [inhibitor, partial curve, poor fit]",–
CS(=O)(=O)N1N=C(c2ccco2)CC1c1ccc(Br)cc1 (configuration not stated),"inconclusive: 37.9 µM [inhibitor, single point]",–
CCN(CC)C(=O)c1cccc2c1C(=O)c1ccccc1-2,–,inactive: 2.63%
O=C(CCCCn1c(=O)c2ccccc2n(Cc2ccccc2Cl)c1=O)NCc1ccc2c(c1)OCO2,–,inactive: -9.37%

Compound,Potency,"activity change, negative = inhibition"
CC(C)CCNC(=O)/C=C/c1ccc(Br)cc1,active: 13.5 µM,–
O=C1Nc2ccccc2/C1=C/c1ccc([N+](=O)[O-])cc1,"inconclusive: 3.79 µM [inhibitor, full curve]",–
Cn1c(=O)c2c(n3c4ccccc4nc13)NC(=O)CC2c1cccc(F)c1 (configuration not stated),"inconclusive: 21.3 µM [inhibitor, partial curve, poor fit]",–
COc1cccc2cc(C(=O)C3=C(O)C(=O)N(c4cc(C)on4)C3c3cccs3)oc12 (configuration not stated),"inconclusive: 21.3 µM [inhibitor, partial curve, poor fit]",–
O=S(=O)(NC1CCc2ccccc21)c1ccc(S(=O)(=O)N2CCCC2)cc1 (configuration not stated),–,inactive: 3.49%
Cc1ccc(NC(=O)CSc2nccn2Cc2ccco2)cc1Cl,"inconclusive: 23.9 µM [inhibitor, single point]",–
Cc1ccc(C2=NOC(=O)/C2=C\c2ccc(C)o2)cc1,"inconclusive: 16.9 µM [inhibitor, partial curve]",–
COc1cccc(C(=O)OCCN2CCCCC2)c1,"inconclusive: 26.9 µM [inhibitor, partial curve, poor fit]",–
O=C(NCCc1csc(-c2ccccc2)n1)c1cccs1,"inconclusive: 21.3 µM [inhibitor, single point]",–
COc1c2ccoc2nc2c(OC)cccc12,"inconclusive: 26.9 µM [inhibitor, single point]",–
Nc1c2c(nc3ccn(-c4ccccc4)c(=O)c13)CCCCC2,"inconclusive: 26.9 µM [inhibitor, single point]",–
CCNC(=O)n1nccc1C(C)Oc1ccccc1 (configuration not stated),–,inactive: 3.28%
COc1cccc(CNC(=O)C(C)n2ncn3cccc3c2=O)c1OC (configuration not stated),active: 6.01 µM,–
COc1ccc(C2CC(c3ccc(OC)cc3O)=NN2C(=O)c2ccccc2)cc1 (configuration not stated),–,inactive: 4.44%
Cc1occc1C(=O)N/N=C/c1ccccn1,"inconclusive: 19 µM [inhibitor, single point]",–
O=C(O)CSc1nnc(-c2ccc(Cl)cc2Cl)n1Cc1ccccc1,–,inactive: 0.595%
C/C(=N/NC(=O)c1ccc(C)s1)c1ccncc1,"inconclusive: 19 µM [inhibitor, partial curve]",–
Cc1ccc(-n2ncc3c(N4CCC(C(N)=O)CC4)ncnc32)cc1,active: 12 µM,–
COc1ccc(-c2nc(CS(=O)(=O)CC(=O)NCc3ccccc3OC)c(C)o2)cc1,–,inactive: -9.74%
CC(C)[C@@H](CO)NC(=O)c1ccc2c3n(nc2c1)-c1ccc(Cl)cc1CO3,active: 8.49 µM,–
Cc1cc(C(F)F)n2nc(C(=O)Nc3ccc(C(C)C)cc3)nc2n1,"inconclusive: 23.9 µM [inhibitor, partial curve, poor fit]",–
COc1ccc(C(=O)NNS(=O)(=O)c2ccccc2)cc1,"inconclusive: 30.1 µM [inhibitor, partial curve, poor fit]",–
CCCc1cc(=O)oc2cc(OC3CCCCC3=O)ccc12 (configuration not stated),–,inactive: -17.4%
